{"source": "the supplement of paper PMC10338343", "note": "± gives the standard deviation. Whole data set: some 3,000 sequences, median “pre-steady-state target cleavage rate” near 0.0079, cut for the highest 2% near 0.2. This is a selection; strong and weak results do not stand in their true shares.", "data": [{"test_system": "MILI (PIWIL2) piRISC loaded with piRNA #2 (26 nt)", "test": "pre-steady-state target cleavage rate (min^-1); MIWI and MILI are mouse PIWI proteins and EfPiwi is from a freshwater sponge; tags in brackets are library labels; higher = faster piRNA-guided slicing of the target", "conditions": "guide: piRNA #2 5'p-UUAGGUAACCCAGUAGAUCCAGAGGA; auxiliary factor: 500 nM mouse GTSF1", "description": "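Cleave-'n-Seq: a library of target RNAs (target site embedded in constant flanks, ACAGCATTCCGCGTTAGTGATATCCG... 5' flank; DNA-blocked outside the site) at 0.1 nM was incubated with 1 nM active mouse MILI or MIWI piRISC (synthetic 5'-monophosphorylated piRNA guide) with or without 500 nM mouse GTSF1 at 33 °C for 1 min to 16 h. Uncleaved targets were sequenced and normalised to non-target controls, and the pooled three trials were fitted to a burst-and-steady-state model to give the pre-steady-state cleavage rate (min^-1; k3 is constrained to at most 1e-4). Sequence is the target site only; target names encode pairing extent (gX:gY) and contiguous / 1-mismatch / 2-mismatch / bulge geometry. Fits with R² ≤ 0 are excluded.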", "values": [{"sequence": "CUUAAGGACUGGAUCUAGUGGGUUACGUAA", "pre-steady-state target cleavage rate": "0.00654 ± 0.0057"}, {"sequence": "CUUAACCUCUGGAACUACUGGGUAACCUAA", "pre-steady-state target cleavage rate": "0.06 ± 0.024"}, {"sequence": "CUUAUCGUGUGGAUCUACUGGGUUACCUAA", "pre-steady-state target cleavage rate": "0.0734 ± 0.013"}, {"sequence": "CUUAAGGUGUGGAUCUAGUGGGUUACCUAA", "pre-steady-state target cleavage rate": "0.026 ± 0.0078"}, {"sequence": "CUUAAGCUCUGGAUCUACUGCGUUACCUUA", "pre-steady-state target cleavage rate": "0.00818 ± 0.0052"}, {"sequence": "CUUAAGCUCUGGAUCUACUGGGUAACCAAA", "pre-steady-state target cleavage rate": "0.00645 ± 0.006"}, {"sequence": "CUUAAGGUCUGGAUCUACAGGGUAACCUAA", "pre-steady-state target cleavage rate": "0.0435 ± 0.013"}, {"sequence": "CUUAAGGAGAGGAUCUACUGGGUUUACCUAA", "pre-steady-state target cleavage rate": "0.0063 ± 0.0027"}, {"sequence": "CUUAACCUCUGGUUGUACUGGGUUACCUAA", "pre-steady-state target cleavage rate": "0.106 ± 0.019"}, {"sequence": "CUUAACCUCUGGAUCUGCUGGGUUACCUAA", "pre-steady-state target cleavage rate": "0.097 ± 0.028"}, {"sequence": "CUUAACCACUGGAUCUACUGGGUAACCUAA", "pre-steady-state target cleavage rate": "0.0323 ± 0.0092"}, {"sequence": "CUUAAGGAGUGGAUCGACUGGGUUACCUAA", "pre-steady-state target cleavage rate": "0.0242 ± 0.0089"}, {"sequence": "CUUAAGGACACCAUCUACUGGGUUACCUAA", "pre-steady-state target cleavage rate": "0.00379 ± 0.0035"}, {"sequence": "CUUAAGCUCUGGAUCUACUGGGUAAGCUAA", "pre-steady-state target cleavage rate": "0.0647 ± 0.018"}, {"sequence": "CUUAAGCUCUCGAUCUACUGCGUUACCUAA", "pre-steady-state target cleavage rate": "0.0193 ± 0.0068"}, {"sequence": "CUUAACCUCUGGAACUACUGGGUUACCUAA", "pre-steady-state target cleavage rate": "0.133 ± 0.03"}, {"sequence": "CUUAUCCUCUGGAUGUACUGGGUUACCUUA", "pre-steady-state target cleavage rate": "0.09 ± 0.022"}, {"sequence": "CUUAAGGAGUCGAUCUACAGGGUUACCUAA", "pre-steady-state target cleavage rate": "0.0107 ± 0.004"}, {"sequence": "CUUAAGGUCUGGAUCUACUGGGUCACCUAA", "pre-steady-state target cleavage rate": "0.0232 ± 0.0097"}, {"sequence": "CUUAAGGUCUGCAUCUACAGGGUUACCUAA", "pre-steady-state target cleavage rate": "0.0777 ± 0.014"}, {"sequence": "CUUAAGGAGUGCAUCUACAGGGUUACCUAA", "pre-steady-state target cleavage rate": "0.0222 ± 0.0091"}, {"sequence": "CUUAACCUGUGGAUCUAGUGGGUUACCUAA", "pre-steady-state target cleavage rate": "0.0719 ± 0.014"}, {"sequence": "CUUAAGGAGACCUUCUACUCGGUAACCUAA", "pre-steady-state target cleavage rate": "< 0.0001"}, {"sequence": "CUUAUCCUCUGGAUCUCUGGGUUACCUAA", "pre-steady-state target cleavage rate": "0.0227 ± 0.01"}, {"sequence": "CUUAAGGACUGGAUCUACUGGGUUACCUCAA", "pre-steady-state target cleavage rate": "0.0196 ± 0.014"}, {"sequence": "CUUAAGCUGUGGAUCUUCUGGGUUACCUAA", "pre-steady-state target cleavage rate": "0.0316 ± 0.015"}, {"sequence": "CUUAAGCACUGGAUCUACUGGGUUAGCUAA", "pre-steady-state target cleavage rate": "0.0264 ± 0.01"}, {"sequence": "CUUAAGGUCUGGAUCUACUGGGUUUGCUAA", "pre-steady-state target cleavage rate": "0.0757 ± 0.029"}, {"sequence": "CUUAACGAGUGGAUCUACUGGGUUACCUAA", "pre-steady-state target cleavage rate": "0.0724 ± 0.021"}, {"sequence": "CUUAAGGAGACCUAGUACUGGGUUACGAUA [g5:g15:cont:t1A]", "pre-steady-state target cleavage rate": "< 0.0001"}, {"sequence": "CUUAUCCUGUGGAUCUACUGGGUUACCUAA", "pre-steady-state target cleavage rate": "0.092 ± 0.014"}, {"sequence": "CUUAAGGUCUGGAUCUACUGGGUUUCCUAA", "pre-steady-state target cleavage rate": "0.0766 ± 0.02"}, {"sequence": "CUUAAGGUCUGGAUCUACUGGGUUACCAAA", "pre-steady-state target cleavage rate": "0.048 ± 0.01"}, {"sequence": "CUUAUCCUCUCGAUCUACUCGGUUACCUAA", "pre-steady-state target cleavage rate": "0.0053 ± 0.0015"}, {"sequence": "CUUAUCCACAGGAUCUACUGGGUUACCUAA", "pre-steady-state target cleavage rate": "0.0392 ± 0.011"}, {"sequence": "CUUAAGCUCUGGAUCUACUGGGUUAUCCUAA", "pre-steady-state target cleavage rate": "0.0827 ± 0.018"}, {"sequence": "CUUAACCUCAGGAUCUACUGCGUUACCUAA", "pre-steady-state target cleavage rate": "0.0123 ± 0.0061"}, {"sequence": "CUUAAGGUCUGGAUGUACUGGGUUUCCUAA", "pre-steady-state target cleavage rate": "0.0124 ± 0.011"}, {"sequence": "CUUAUCCUCUGGAUCUACUGCGUUUCCUAA", "pre-steady-state target cleavage rate": "0.00538 ± 0.004"}, {"sequence": "CUUAAGGAGUGGAUCUAGUGGGUAACCUAA", "pre-steady-state target cleavage rate": "0.00624 ± 0.0032"}, {"sequence": "CUUAAGGUCUCGAUCUACUGGGAUACCUAA", "pre-steady-state target cleavage rate": "0.0139 ± 0.0058"}, {"sequence": "CUUAUCCUCAGGAACUACUGGGUUACCUAA", "pre-steady-state target cleavage rate": "0.107 ± 0.02"}, {"sequence": "CUUAAGCUCUGGAAUCUACUGGGUUACCUAA", "pre-steady-state target cleavage rate": "0.0887 ± 0.022"}, {"sequence": "CUUAUCCACUGGAUCUAGUGGGUUACCUAA", "pre-steady-state target cleavage rate": "0.0753 ± 0.013"}, {"sequence": "CUUAUCCUCUGGAUGUAGUGGGUUACCUAA", "pre-steady-state target cleavage rate": "0.0679 ± 0.01"}, {"sequence": "CUUAAGGACUGGAUCUACAGGGUUAGCUAA", "pre-steady-state target cleavage rate": "0.0183 ± 0.0082"}, {"sequence": "CUUAACCUCUGCAUCUACUCGGUUACCUAA", "pre-steady-state target cleavage rate": "0.00303 ± 0.003"}, {"sequence": "CUUAAGCUCUGGAUCUAGUGGGUUACGUAA", "pre-steady-state target cleavage rate": "0.0139 ± 0.0039"}, {"sequence": "CUUAACCUCUGGAUCUACUGGGUUAGCAAA", "pre-steady-state target cleavage rate": "0.0809 ± 0.022"}, {"sequence": "CUUAAGGACUGGAUCUACAGGGAUACCUAA", "pre-steady-state target cleavage rate": "0.0157 ± 0.0078"}, {"sequence": "CUUAUGCUCUGGUUCUACUGGGUUACCUAA", "pre-steady-state target cleavage rate": "0.178 ± 0.037"}, {"sequence": "CUUAAGGAGAGCAUCUUCUGGGUUACCUAA", "pre-steady-state target cleavage rate": "0.0076 ± 0.0058"}, {"sequence": "CUUAAGGAGUGGAUCUACUGGGUUACCAAA", "pre-steady-state target cleavage rate": "0.0137 ± 0.0062"}, {"sequence": "CUUAAGGUCAGGAUCUAGUGGGUUACCUAA", "pre-steady-state target cleavage rate": "0.0133 ± 0.0076"}, {"sequence": "CUUAUCCUCUGGAUGAACUGGGUUACCUAA", "pre-steady-state target cleavage rate": "0.0359 ± 0.011"}, {"sequence": "CUUAAGGUAUGGAUCUACUGGGUUACCUAA", "pre-steady-state target cleavage rate": "0.0635 ± 0.015"}, {"sequence": "CUUAAGGACUGGAUCUACAGGGUUACCUAA", "pre-steady-state target cleavage rate": "0.0863 ± 0.015"}, {"sequence": "CUUAAGGACUGGUUCUAGUGGGUUACCUAA", "pre-steady-state target cleavage rate": "0.0139 ± 0.0072"}, {"sequence": "CUUAAGCUCUGGAUCUACUGGGUUACCUUA", "pre-steady-state target cleavage rate": "0.0784 ± 0.018"}, {"sequence": "CUUAAGGUCUGGACUACUGGGUUACCUAA", "pre-steady-state target cleavage rate": "0.0417 ± 0.015"}, {"sequence": "CUUAAGGACUGGAUCAAGUGGGUUACCUAA", "pre-steady-state target cleavage rate": "0.00753 ± 0.005"}, {"sequence": "CUUAACCUCUGGUUCUACUCGGUUACCUAA", "pre-steady-state target cleavage rate": "0.00985 ± 0.0055"}, {"sequence": "CUUAAGGAGACCUACUACUUGGUUACCUAA", "pre-steady-state target cleavage rate": "< 0.0001"}, {"sequence": "CUUAAGGAGAGGAUCUACUGGGUUACCUUA", "pre-steady-state target cleavage rate": "0.00788 ± 0.0047"}, {"sequence": "CUUAAGGUCUGGAUCUAGUGGGUAACCUAA", "pre-steady-state target cleavage rate": "0.0225 ± 0.007"}, {"sequence": "CUUAAGGUCUGGUACUACUGGGUUACCUAA", "pre-steady-state target cleavage rate": "0.0536 ± 0.021"}, {"sequence": "CUUAAGCUGUGCAUCUACUGGGUUACCUAA", "pre-steady-state target cleavage rate": "0.0912 ± 0.028"}, {"sequence": "CUUAAGGACUCGGAUCUACUGGGUUACCUAA", "pre-steady-state target cleavage rate": "0.0209 ± 0.0086"}, {"sequence": "CUUAUCUCUCUGGAUCUACUGGGUUACCUAA", "pre-steady-state target cleavage rate": "0.0647 ± 0.018"}, {"sequence": "CUUAUCCUCUGGAUCUACAGGGUUACCUAA", "pre-steady-state target cleavage rate": "0.119 ± 0.016"}, {"sequence": "CUUAAGCUCUGGAUCUACUGGGUUACCUUAA", "pre-steady-state target cleavage rate": "0.0518 ± 0.015"}, {"sequence": "CUUAUCCUCUCGAUCUACUGGGUUACGUAA", "pre-steady-state target cleavage rate": "0.0518 ± 0.015"}]}]}
